According to the supplement of paper PMC8728848:
Some of the results follow.

Columns and labels:
Assay in all cases: glycan array binding signal (z-score within array); higher = stronger binding
Settings in all cases: glycan notation: IUPAC condensed, linker removed
Fuc(a1-2)Gal = target: Fuc(a1-2)Gal
Method in brief: (§1)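 Glycan array data were curated from 3228 arrays in the Consortium for Functional Glycomics database and kept only where the protein sequence was available. Glycan names were converted to IUPAC-condensed notation, and columns mapping to the same glycan were averaged. The binding signal is a within-array Z-score, averaged across arrays of the same protein sequence at different concentrations or buffers and across linkers. Negative Z-scores can be read as non-binding.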

Fuc(a1-2)Gal(b1-3)GalNAc = target: Fuc(a1-2)Gal(b1-3)GalNAc
Method in brief: as §1

[1] = target: Fuc(a1-2)Gal(b1-3)GalNAc(a1-3)[Fuc(a1-2)]Gal(b1-4)Glc
Method in brief: as §1

[2] = target: Fuc(a1-2)Gal(b1-3)GalNAc(a1-3)[Fuc(a1-2)]Gal(b1-4)GlcNAc
Method in brief: as §1

[3] = target: Fuc(a1-2)Gal(b1-3)GalNAc(b1-3)Gal
Method in brief: as §1

[4] = target: Fuc(a1-2)Gal(b1-3)GalNAc(b1-3)Gal(a1-4)Gal(b1-4)Glc
Method in brief: as §1

[5] = target: Fuc(a1-2)Gal(b1-3)GalNAc(b1-4)[Neu5Ac(a2-3)]Gal(b1-4)Glc
Method in brief: as §1

Fuc(a1-2)Gal(b1-3)GlcNAc = target: Fuc(a1-2)Gal(b1-3)GlcNAc
Method in brief: as §1

[6] = target: Fuc(a1-2)Gal(b1-3)GlcNAc(b1-2)Man(a1-3)[Fuc(a1-2)Gal(b1-3)GlcNAc(b1-2)Man(a1-6)]Man(b1-4)GlcNAc(b1-4)GlcNAc
Method in brief: as §1

[7] = target: Fuc(a1-2)Gal(b1-3)GlcNAc(b1-3)Gal(b1-4)Glc
Method in brief: as §1

[8] = target: Fuc(a1-2)Gal(b1-3)GlcNAc(b1-3)[Fuc(a1-3)[Gal(b1-4)]GlcNAc(b1-6)]Gal(b1-4)Glc
Method in brief: as §1

[9] = target: Fuc(a1-2)Gal(b1-3)[Fuc(a1-4)]GlcNAc
Method in brief: as §1

[10] = target: Fuc(a1-2)Gal(b1-3)[Fuc(a1-4)]GlcNAc(b1-2)Man(a1-3)[Fuc(a1-2)Gal(b1-3)[Fuc(a1-4)]GlcNAc(b1-2)Man(a1-6)]Man(b1-4)GlcNAc(b1-4)GlcNAc
Method in brief: as §1

[11] = target: Fuc(a1-2)Gal(b1-3)[Fuc(a1-4)]GlcNAc(b1-3)[Fuc(a1-3)[Gal(b1-4)]GlcNAc(b1-6)]Gal(b1-4)Glc
Method in brief: as §1

[12] = target: Fuc(a1-2)Gal(b1-3)[Fuc(a1-4)]GlcNAc(b1-3)[Gal(b1-4)GlcNAc(b1-6)]Gal(b1-4)Glc
Method in brief: as §1

Fuc(a1-2)Gal(b1-4)Glc = target: Fuc(a1-2)Gal(b1-4)Glc
Method in brief: as §1

Fuc(a1-2)Gal(b1-4)Glc6S = target: Fuc(a1-2)Gal(b1-4)Glc6S
Method in brief: as §1

Fuc(a1-2)Gal(b1-4)GlcNAc = target: Fuc(a1-2)Gal(b1-4)GlcNAc
Method in brief: as §1

[13] = target: Fuc(a1-2)Gal(b1-4)GlcNAc(b1-2)Man(a1-3)[Fuc(a1-2)Gal(b1-4)GlcNAc(b1-2)Man(a1-6)]Man(b1-4)GlcNAc(b1-4)GlcNAc
Method in brief: as §1

[14] = target: Fuc(a1-2)Gal(b1-4)GlcNAc(b1-3)Gal(b1-4)GlcNAc
Method in brief: as §1

[15] = target: Fuc(a1-2)Gal(b1-4)GlcNAc(b1-3)Gal(b1-4)GlcNAc(b1-3)Gal(b1-4)GlcNAc
Method in brief: as §1

[16] = target: Fuc(a1-2)Gal(b1-4)GlcNAc(b1-3)GalNAc
Method in brief: as §1

[17] = target: Fuc(a1-2)Gal(b1-4)GlcNAc6S
Method in brief: as §1

[18] = target: Fuc(a1-2)Gal(b1-4)[Fuc(a1-3)]GlcNAc
Method in brief: as §1

[19] = target: Fuc(a1-2)Gal(b1-4)[Fuc(a1-3)]GlcNAc(b1-2)Man(a1-3)[Fuc(a1-2)Gal(b1-4)[Fuc(a1-3)]GlcNAc(b1-2)Man(a1-6)]Man(b1-4)GlcNAc(b1-4)GlcNAc
Method in brief: as §1

[20] = target: Fuc(a1-2)Gal(b1-4)[Fuc(a1-3)]GlcNAc(b1-3)Gal(b1-4)[Fuc(a1-3)]GlcNAc
Method in brief: as §1

[21] = target: Fuc(a1-2)Gal(b1-4)[Fuc(a1-3)]GlcNAc(b1-3)Gal(b1-4)[Fuc(a1-3)]GlcNAc(b1-3)Gal(b1-4)[Fuc(a1-3)]GlcNAc
Method in brief: as §1

Fuc(a1-2)Gal6S(b1-4)Glc = target: Fuc(a1-2)Gal6S(b1-4)Glc
Method in brief: as §1

[22] = target: Fuc(a1-2)Gal6S(b1-4)Glc6S
Method in brief: as §1

[23] = target: Fuc(a1-2)Gal6S(b1-4)GlcNAc
Method in brief: as §1

Fuc(a1-2)GlcNAc = target: Fuc(a1-2)GlcNAc
Method in brief: as §1

Fuc(a1-2)[Gal(a1-3)]Gal = target: Fuc(a1-2)[Gal(a1-3)]Gal
Method in brief: as §1

[24] = target: Fuc(a1-2)[Gal(a1-3)]Gal(b1-3)GlcNAc
Method in brief: as §1

[25] = target: Fuc(a1-2)[Gal(a1-3)]Gal(b1-3)GlcNAc(b1-2)Man(a1-3)[Fuc(a1-2)[Gal(a1-3)]Gal(b1-3)GlcNAc(b1-2)Man(a1-6)]Man(b1-4)GlcNAc(b1-4)GlcNAc
Method in brief: as §1

[26] = target: Fuc(a1-2)[Gal(a1-3)]Gal(b1-4)Glc
Method in brief: as §1

[27] = target: Fuc(a1-2)[Gal(a1-3)]Gal(b1-4)GlcNAc
Method in brief: as §1

[28] = target: Fuc(a1-2)[Gal(a1-3)]Gal(b1-4)GlcNAc(b1-2)Man(a1-3)[Fuc(a1-2)[Gal(a1-3)]Gal(b1-4)GlcNAc(b1-2)Man(a1-6)]Man(b1-4)GlcNAc(b1-4)GlcNAc
Method in brief: as §1

B1: CLEC-1 (Homo sapiens), Q9NZH3 (protein)
chain: MQAKYSSTRDMLDDDGDTTMSLHSQASATTRHPEPRRTEHRAPSSTWRPVALTLLTLCLVLLIGLAAWGLLFFQYYQLSNTGQDTISQMEERLGNTSQELQSLQVQNIKLAGSLQHVAEKLCRELYNKAGAHRCSPCTEQWKWHGDNCYQFYKDSKSWEDCKYFCLSENSTMLKINKQEDLEFAASQSYSEFFYSYWTGLLRPDSGKAWLWMDGTPFTSELFHIIIDVTSPRSRDCVAILNGMIFSKDCKELKRCVCERRAGMVKPESLHVPPETLGEGD
In the case of B1, the “glycan array binding signal (z-score)” value (Fuc(a1-2)Gal) is reported as -0.176, the “glycan array binding signal (z-score)” value (Fuc(a1-2)Gal(b1-3)GalNAc) is reported as -0.181 and the “glycan array binding signal (z-score)” value [1] is reported as -0.041. For the same binder, the “glycan array binding signal (z-score)” value [2] was -0.28, the “glycan array binding signal (z-score)” value [3] was 0.57 and the “glycan array binding signal (z-score)” value [4] was -0.243. For the same binder, the “glycan array binding signal (z-score)” value [5] was -0.266, the “glycan array binding signal (z-score)” value (Fuc(a1-2)Gal(b1-3)GlcNAc) was 0.087 and the “glycan array binding signal (z-score)” value [6] was 6.09. For the same binder, the “glycan array binding signal (z-score)” value [7] was -0.354, the “glycan array binding signal (z-score)” value [8] was 0.13 and the “glycan array binding signal (z-score)” value [9] was -0.021. The “glycan array binding signal (z-score)” value [10] was -0.075, the “glycan array binding signal (z-score)” value [11] was -0.562 and the “glycan array binding signal (z-score)” value [12] was -0.641. For the same binder, the “glycan array binding signal (z-score)” value (Fuc(a1-2)Gal(b1-4)Glc) was -0.068, the “glycan array binding signal (z-score)” value (Fuc(a1-2)Gal(b1-4)Glc6S) was -0.012 and the “glycan array binding signal (z-score)” value (Fuc(a1-2)Gal(b1-4)GlcNAc) was -0.336. For the same binder, the “glycan array binding signal (z-score)” value [13] was -0.303, the “glycan array binding signal (z-score)” value [14] was -0.112 and the “glycan array binding signal (z-score)” value [15] was -0.036. For the same binder, the “glycan array binding signal (z-score)” value [16] was -0.563, the “glycan array binding signal (z-score)” value [17] was -0.341 and the “glycan array binding signal (z-score)” value [18] was -0.135. The “glycan array binding signal (z-score)” value [19] was 1.72, the “glycan array binding signal (z-score)” value [20] was -0.262 and the “glycan array binding signal (z-score)” value [21] was 0.05. For the same binder, the “glycan array binding signal (z-score)” value (Fuc(a1-2)Gal6S(b1-4)Glc) was 0.152, the “glycan array binding signal (z-score)” value [22] was -0.817 and the “glycan array binding signal (z-score)” value [23] was -0.064. For the same binder, the “glycan array binding signal (z-score)” value (Fuc(a1-2)GlcNAc) was -0.281, the “glycan array binding signal (z-score)” value (Fuc(a1-2)[Gal(a1-3)]Gal) was 0.129 and the “glycan array binding signal (z-score)” value [24] was -0.221. The “glycan array binding signal (z-score)” value [25] was -0.262, the “glycan array binding signal (z-score)” value [26] was -0.44 and the “glycan array binding signal (z-score)” value [27] was -0.315. The “glycan array binding signal (z-score)” value [28] was -0.135.
